Reference: publication PMC2684588
These are yes or no findings as the source states them, for the method shown. In cells and extracts the contact can be indirect. Some binding calls cover weakened binding; strength is not graded here. For some assays here: Where a sequence is shown, tags or fusion partners need not be part of it.

By UniProt entry, the sequences of proteins in these tests, tags left out.
UniProt Q7Z434: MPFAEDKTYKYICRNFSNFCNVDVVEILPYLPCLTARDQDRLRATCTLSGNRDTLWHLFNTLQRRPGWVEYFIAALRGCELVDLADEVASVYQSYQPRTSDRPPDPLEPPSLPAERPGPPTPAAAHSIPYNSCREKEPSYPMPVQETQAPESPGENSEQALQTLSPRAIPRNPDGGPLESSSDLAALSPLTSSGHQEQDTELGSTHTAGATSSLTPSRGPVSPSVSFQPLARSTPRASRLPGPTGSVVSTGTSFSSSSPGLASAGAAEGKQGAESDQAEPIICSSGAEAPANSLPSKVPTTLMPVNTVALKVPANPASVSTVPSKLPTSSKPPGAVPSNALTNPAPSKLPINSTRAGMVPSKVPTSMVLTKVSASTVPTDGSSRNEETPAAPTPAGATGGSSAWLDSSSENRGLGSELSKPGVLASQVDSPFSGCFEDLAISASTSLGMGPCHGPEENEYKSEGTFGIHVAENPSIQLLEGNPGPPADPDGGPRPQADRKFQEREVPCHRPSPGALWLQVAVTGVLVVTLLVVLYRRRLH

T1: Flag-tagged RIG-I (UniProt O95786)
T1 sequence: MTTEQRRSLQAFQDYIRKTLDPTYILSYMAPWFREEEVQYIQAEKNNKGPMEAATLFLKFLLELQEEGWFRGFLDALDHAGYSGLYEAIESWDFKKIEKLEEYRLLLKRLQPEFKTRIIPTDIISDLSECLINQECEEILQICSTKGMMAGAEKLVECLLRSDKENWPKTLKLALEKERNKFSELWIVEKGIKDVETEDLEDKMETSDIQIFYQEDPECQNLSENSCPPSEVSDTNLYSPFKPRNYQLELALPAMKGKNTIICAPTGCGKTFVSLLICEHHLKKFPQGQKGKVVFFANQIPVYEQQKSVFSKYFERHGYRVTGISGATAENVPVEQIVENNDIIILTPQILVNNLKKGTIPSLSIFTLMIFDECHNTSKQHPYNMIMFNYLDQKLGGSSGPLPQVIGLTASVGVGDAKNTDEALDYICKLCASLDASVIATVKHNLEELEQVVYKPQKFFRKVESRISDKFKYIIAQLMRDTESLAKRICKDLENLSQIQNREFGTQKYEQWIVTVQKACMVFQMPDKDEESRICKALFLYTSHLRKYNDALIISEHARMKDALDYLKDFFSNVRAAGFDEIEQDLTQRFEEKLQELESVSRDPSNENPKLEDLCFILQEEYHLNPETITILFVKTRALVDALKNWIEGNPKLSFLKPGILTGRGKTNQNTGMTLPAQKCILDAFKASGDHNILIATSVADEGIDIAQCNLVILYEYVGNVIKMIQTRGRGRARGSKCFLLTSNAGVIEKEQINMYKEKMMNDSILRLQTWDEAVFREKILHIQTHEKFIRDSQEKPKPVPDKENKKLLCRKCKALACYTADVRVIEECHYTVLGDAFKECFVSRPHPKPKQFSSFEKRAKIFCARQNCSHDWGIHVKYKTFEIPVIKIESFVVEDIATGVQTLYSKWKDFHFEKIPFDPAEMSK

T2: endogenous RIG-I of HEK293T cells (human (endogenous in HEK293T)) (UniProt O95786)
T2 sequence: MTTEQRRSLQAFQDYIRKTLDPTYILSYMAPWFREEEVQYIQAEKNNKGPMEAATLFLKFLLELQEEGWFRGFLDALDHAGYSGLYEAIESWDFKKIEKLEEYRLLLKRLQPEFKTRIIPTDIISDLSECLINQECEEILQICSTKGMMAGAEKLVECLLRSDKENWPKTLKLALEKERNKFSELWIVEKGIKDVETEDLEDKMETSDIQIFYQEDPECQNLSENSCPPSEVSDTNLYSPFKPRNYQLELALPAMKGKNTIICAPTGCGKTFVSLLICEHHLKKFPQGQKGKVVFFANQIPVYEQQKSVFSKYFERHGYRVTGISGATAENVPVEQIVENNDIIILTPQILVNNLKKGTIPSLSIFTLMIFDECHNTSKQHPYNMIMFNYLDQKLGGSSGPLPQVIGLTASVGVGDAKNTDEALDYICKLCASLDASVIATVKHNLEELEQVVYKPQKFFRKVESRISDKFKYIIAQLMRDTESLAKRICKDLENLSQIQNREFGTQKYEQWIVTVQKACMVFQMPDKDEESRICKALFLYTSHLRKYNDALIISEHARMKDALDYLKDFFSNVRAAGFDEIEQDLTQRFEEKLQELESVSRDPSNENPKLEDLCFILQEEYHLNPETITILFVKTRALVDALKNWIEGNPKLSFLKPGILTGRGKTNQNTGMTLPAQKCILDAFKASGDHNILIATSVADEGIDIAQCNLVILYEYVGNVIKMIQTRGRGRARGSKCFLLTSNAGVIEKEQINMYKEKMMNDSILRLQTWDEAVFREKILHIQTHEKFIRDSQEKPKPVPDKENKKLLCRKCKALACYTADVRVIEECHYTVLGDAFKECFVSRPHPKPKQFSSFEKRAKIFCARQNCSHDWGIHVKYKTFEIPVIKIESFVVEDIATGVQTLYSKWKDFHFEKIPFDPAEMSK


Key:
[1] = target: Flag-VISA (UniProt Q7Z434); assay: co-IP; HEK293/HEK293T cells co-transfected with Flag- and HA-tagged plasmids; lysis buffer 20 mM Tris pH 7.5, 150 mM NaCl, 1% Triton X-100, 1 mM EDTA; IP with anti-Flag, anti-HA or mouse IgG and protein-A sepharose for 2 h; Western blot
[2] = target: T1, Flag-tagged RIG-I; assay: as above
[3] = target: T2, endogenous RIG-I of HEK293T cells (human (endogenous in HEK293T)); assay: condition: only cells transfected with polyI:C (100 µg, 4 h) instead of SV infection; co-IP; endogenous proteins; HEK293T cells transfected with polyI:C (100 µg) for 4 h before lysis
[4] = target: T2, endogenous RIG-I of HEK293T cells (human (endogenous in HEK293T)); assay: condition: only cells without stimulation (no SV infection); co-IP; endogenous proteins; HEK293T cells left untreated
[5] = target: T2, endogenous RIG-I of HEK293T cells (human (endogenous in HEK293T)); assay: co-IP; endogenous proteins; untransfected HEK293T cells treated with SV for 4 h before lysis

Row | Binder | binding [1] | binding [2] | binding [3] | binding [4] | binding [5]
1 | HA-tagged REUL, full-length (protein, UniProt Q8IUD6-1 1-432) MAGLGLGSAVPVWLAEDDLGCIICQGLLDWPATLPCGHSFCRHCLEALWGARDARRWACPTCRQGAAQQPHLRKNTLLQDLADKYRRAAREIQAGSDPAHCPCPGSSSLSSAAARPRRRPELQRVAVEKSITEVAQELTELVEHLVDIVRSLQNQRPLSESGPDNELSILGKAFSSGVDLSMASPKLVTSDTAAGKIRDILHDLEEIQEKLQESVTWKEAPEAQMQGELLEAPSSSSCPLPDQSHPALRRASRFAQWAIHPTFNLKSLSCSLEVSKDSRTVTVSHRPQPYRWSCERFSTSQVLCSQALSSGKHYWEVDTRNCSHWAVGVASWEMSRDQVLGRTMDSCCVEWKGTSQLSAWHMVKETVLGSDRPGVVGIWLNLEEGKLAFYSVDNQEKLLYECTISASSPLYPAFWLYGLHPGNYLIIKQVKV | no binding | binds | – | – | –
2 | endogenous REUL of HEK293T cells (protein, UniProt Q8IUD6-1 1-432) MAGLGLGSAVPVWLAEDDLGCIICQGLLDWPATLPCGHSFCRHCLEALWGARDARRWACPTCRQGAAQQPHLRKNTLLQDLADKYRRAAREIQAGSDPAHCPCPGSSSLSSAAARPRRRPELQRVAVEKSITEVAQELTELVEHLVDIVRSLQNQRPLSESGPDNELSILGKAFSSGVDLSMASPKLVTSDTAAGKIRDILHDLEEIQEKLQESVTWKEAPEAQMQGELLEAPSSSSCPLPDQSHPALRRASRFAQWAIHPTFNLKSLSCSLEVSKDSRTVTVSHRPQPYRWSCERFSTSQVLCSQALSSGKHYWEVDTRNCSHWAVGVASWEMSRDQVLGRTMDSCCVEWKGTSQLSAWHMVKETVLGSDRPGVVGIWLNLEEGKLAFYSVDNQEKLLYECTISASSPLYPAFWLYGLHPGNYLIIKQVKV | – | – | no binding | no binding | binds
